For assay [1], the target named is T1, GST-tagged Yra1p (S. cerevisiae) (UniProt Q12159).
T1 sequence: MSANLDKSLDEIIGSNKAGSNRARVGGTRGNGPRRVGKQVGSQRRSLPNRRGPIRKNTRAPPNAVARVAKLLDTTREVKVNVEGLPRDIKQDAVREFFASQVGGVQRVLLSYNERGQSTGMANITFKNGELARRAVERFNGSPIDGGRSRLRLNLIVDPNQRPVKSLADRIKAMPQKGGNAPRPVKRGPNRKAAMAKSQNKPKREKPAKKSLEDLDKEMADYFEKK
The assay is described as follows: pull-down; GST-tagged Yra1p or its subfragments as bait (1 µg) on beads, 200 ng target protein; 50 mM HEPES-KOH pH 7.5, 150 mM NaCl, 10% glycerol, 0.1% NP40, 0.5 mM DTT, 1 mM EDTA; 4 °C, 2 h; Western blotting; both purified. In general terms: A western blot detects proteins with antibodies after separation by electrophoresis.

Amino acid sequences for entries named in this document (tags omitted).
UniProt P10961: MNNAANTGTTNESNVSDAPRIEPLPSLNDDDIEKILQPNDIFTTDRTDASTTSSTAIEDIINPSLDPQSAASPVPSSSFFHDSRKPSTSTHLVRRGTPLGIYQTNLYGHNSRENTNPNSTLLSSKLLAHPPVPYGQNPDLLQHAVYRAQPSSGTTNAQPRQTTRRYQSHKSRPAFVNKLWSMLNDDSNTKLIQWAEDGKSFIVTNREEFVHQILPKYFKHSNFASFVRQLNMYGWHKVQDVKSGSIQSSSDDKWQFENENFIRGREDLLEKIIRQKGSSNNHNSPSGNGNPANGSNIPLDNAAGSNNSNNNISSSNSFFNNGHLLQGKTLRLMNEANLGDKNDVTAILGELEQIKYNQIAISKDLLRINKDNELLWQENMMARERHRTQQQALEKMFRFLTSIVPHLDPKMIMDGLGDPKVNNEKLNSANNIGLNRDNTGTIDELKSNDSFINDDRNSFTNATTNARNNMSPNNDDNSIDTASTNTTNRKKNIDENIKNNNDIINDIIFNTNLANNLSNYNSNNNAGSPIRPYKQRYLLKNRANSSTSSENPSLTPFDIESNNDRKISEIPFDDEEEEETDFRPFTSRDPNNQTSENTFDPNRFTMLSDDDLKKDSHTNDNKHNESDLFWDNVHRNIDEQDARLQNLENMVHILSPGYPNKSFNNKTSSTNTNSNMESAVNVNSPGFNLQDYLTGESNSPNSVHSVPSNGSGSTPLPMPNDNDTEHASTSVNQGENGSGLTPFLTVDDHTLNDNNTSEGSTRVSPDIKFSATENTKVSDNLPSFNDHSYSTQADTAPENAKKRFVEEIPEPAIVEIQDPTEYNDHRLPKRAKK
UniProt P39081: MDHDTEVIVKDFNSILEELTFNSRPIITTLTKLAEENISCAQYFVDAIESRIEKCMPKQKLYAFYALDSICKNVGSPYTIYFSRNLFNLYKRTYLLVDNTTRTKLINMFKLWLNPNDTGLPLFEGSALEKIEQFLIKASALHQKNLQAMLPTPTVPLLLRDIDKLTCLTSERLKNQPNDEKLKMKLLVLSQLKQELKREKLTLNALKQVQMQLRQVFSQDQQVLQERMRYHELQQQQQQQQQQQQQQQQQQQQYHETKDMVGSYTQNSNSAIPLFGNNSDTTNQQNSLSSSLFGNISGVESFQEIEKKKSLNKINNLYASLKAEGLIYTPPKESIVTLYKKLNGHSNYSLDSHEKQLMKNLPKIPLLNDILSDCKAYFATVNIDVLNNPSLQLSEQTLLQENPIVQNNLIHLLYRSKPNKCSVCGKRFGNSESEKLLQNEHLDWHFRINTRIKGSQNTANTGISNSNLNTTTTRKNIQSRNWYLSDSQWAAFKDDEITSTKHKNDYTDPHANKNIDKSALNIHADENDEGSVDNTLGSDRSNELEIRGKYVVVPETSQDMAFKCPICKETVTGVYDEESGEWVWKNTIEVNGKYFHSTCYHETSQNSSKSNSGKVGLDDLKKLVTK

Assay [2] deals with T2, GST-Yra1p RRM (S. cerevisiae) (UniProt Q12159).
T2 sequence: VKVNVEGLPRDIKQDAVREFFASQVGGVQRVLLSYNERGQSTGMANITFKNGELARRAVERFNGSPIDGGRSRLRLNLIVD
The description is as above.

For a further assay, the target named is Hsf1p (S. cerevisiae) (UniProt P10961). Description: co-IP; yeast lysates in NP40 lysis buffer (1% NP40, 150 mM NaCl, 2 mM EDTA), IgG or anti-FLAG M2 beads, 4 °C, 2 h; Western blotting; wildtype cells (also rpt2-1 cells for Sgf73p-Yra1p; also sgf73Δ cells for Ada1p and Spt20p).
For assay [3], the target named is Pcf11p (in yeast cells) (S. cerevisiae) (UniProt P39081). The description is as above.
Assay [4] deals with T3, Rrp6p-5xFLAG (S. cerevisiae) (UniProt Q12149).
T3 sequence: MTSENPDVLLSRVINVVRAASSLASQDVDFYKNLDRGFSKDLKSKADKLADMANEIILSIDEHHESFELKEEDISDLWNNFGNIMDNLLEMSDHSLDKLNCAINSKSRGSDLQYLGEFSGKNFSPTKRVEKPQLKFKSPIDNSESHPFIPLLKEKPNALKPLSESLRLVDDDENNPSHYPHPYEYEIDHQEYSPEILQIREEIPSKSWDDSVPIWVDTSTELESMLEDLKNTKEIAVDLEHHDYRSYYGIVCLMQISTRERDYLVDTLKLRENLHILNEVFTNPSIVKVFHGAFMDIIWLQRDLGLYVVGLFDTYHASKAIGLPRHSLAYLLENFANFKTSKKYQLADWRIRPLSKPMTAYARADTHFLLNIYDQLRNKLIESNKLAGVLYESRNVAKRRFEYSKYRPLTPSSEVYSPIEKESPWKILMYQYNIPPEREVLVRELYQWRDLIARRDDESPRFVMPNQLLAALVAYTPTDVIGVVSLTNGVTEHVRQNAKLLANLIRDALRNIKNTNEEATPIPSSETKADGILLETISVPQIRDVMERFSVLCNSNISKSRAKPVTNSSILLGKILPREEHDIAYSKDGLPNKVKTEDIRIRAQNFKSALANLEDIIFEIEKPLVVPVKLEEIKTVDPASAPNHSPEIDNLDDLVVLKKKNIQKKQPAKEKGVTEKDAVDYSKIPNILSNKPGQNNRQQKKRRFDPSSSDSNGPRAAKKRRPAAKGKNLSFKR
The description is as above.

Another assay concerns the target T4, Sub2p (S. cerevisiae) (UniProt Q07478).
T4 sequence: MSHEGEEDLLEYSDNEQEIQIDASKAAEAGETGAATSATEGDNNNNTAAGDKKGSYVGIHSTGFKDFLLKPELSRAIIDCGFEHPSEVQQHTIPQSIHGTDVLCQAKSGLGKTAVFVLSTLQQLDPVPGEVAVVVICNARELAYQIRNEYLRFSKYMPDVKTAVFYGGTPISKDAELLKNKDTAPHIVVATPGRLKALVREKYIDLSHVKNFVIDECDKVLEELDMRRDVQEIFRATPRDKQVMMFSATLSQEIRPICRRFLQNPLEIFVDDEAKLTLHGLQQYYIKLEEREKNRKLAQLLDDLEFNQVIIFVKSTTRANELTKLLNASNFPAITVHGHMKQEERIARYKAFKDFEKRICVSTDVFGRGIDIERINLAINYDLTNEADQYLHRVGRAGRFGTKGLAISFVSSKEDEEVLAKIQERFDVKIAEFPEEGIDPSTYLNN
The description is as above.

The target in assay [5] is T5, Yra1p-5xFLAG (S. cerevisiae) (UniProt Q12159).
T5 sequence: T1 sequence
The description is as above.

These are yes or no findings as the source states them, for the method shown. For some of these results: Binding seen in cells or lysates may run through a third protein. Some results given as binding are weak or reduced against the parent protein; the word gives no strength. Where a sequence is shown, tags or fusion partners need not be part of it.

B1: gel-filtration-purified Sgf73-DUBm (SAGA deubiquitylating module) (complex, UniProt P53165 1-657; P50102 1-471; Q03067 1-99; Q6WNK7 1-96)
chain 1: MRSGDAEIKGIKPKVIEEYSLSQGSGPSNDSWKSLMSSAKDTPLQYDHMNRESLKKYFNPNAQLIEDPLDKPIQYRVCEKCGKPLALTAIVDHLENHCAGASGKSSTDPRDESTRETIRNGVESTGRNNNDDDNSNDNNNDDDDDDDNDDNEDDDDADDDDDNSNGANYKKNDSSFNPLKRSTSMESANTPNMDTKRSKTGTPQTFSSSIKKQKKVKQRNPTEKHLIDFNKQCGVELPEGGYCARSLTCKSHSMGAKRAVSGRSKPYDVLLADYHREHQTKIGAAAEKRAKQQELQKLQKQIQKEQKKHTQQQKQGQRSKQRNVNGGKSAKNGGKSTVHNGNNINEIGHVNLTPEEETTQVLNGVSRSFPLPLESTVLSSVRYRTKYFRMREMFASSFSVKPGYTSPGYGAIHSRVGCLDLDRTTDYKFRVRTPQPINHLTNQNLNPKQIQRLQQQRALQAQLLSQQQQQQQQQQQHHSPQAQAQASTQQPTQGMVPNHFPGGATNSSFNANVSSKQIQQQQQQQQHKSQDTGLTPLEIQSQQQKLRQQQLQQQKFEAAASYLANATKLMQESNQDSHLSGTHNNNSSKNGNNNLMTMKASISSPNTSVNSIQSPPSVNSVNGSGQGVSTGINVSGNNGRIEVGIGNSVNPYNGRIN
chain 2: MSICPHIQQVFQNEKSKDGVLKTCNAARYILNHSVPKEKFLNTMKCGTCHEINSGATFMCLQCGFCGCWNHSHFLSHSKQIGHIFGINSNNGLLFCFKCEDYIGNIDLINDAILAKYWDDVCTKTMVPSMERRDGLSGLINMGSTCFMSSILQCLIHNPYFIRHSMSQIHSNNCKVRSPDKCFSCALDKIVHELYGALNTKQASSSSTSTNRQTGFIYLLTCAWKINQNLAGYSQQDAHEFWQFIINQIHQSYVLDLPNAKEVSRANNKQCECIVHTVFEGSLESSIVCPGCQNNSKTTIDPFLDLSLDIKDKKKLYECLDSFHKKEQLKDFNYHCGECNSTQDAIKQLGIHKLPSVLVLQLKRFEHLLNGSNRKLDDFIEFPTYLNMKNYCSTKEKDKHSENGKVPDIIYELIGIVSHKGTVNEGHYIAFCKISGGQWFKFNDSMVSSISQEEVLKEQAYLLFYTIRQVN
chain 3: MTEETITIDSISNGILNNLLTTLIQDIVARETTQQQLLKTRYPDLRSYYFDPNGSLDINGLQKQQESSQYIHCENCGRDVSANRLAAHLQRCLSRGARR
chain 4: MTMDTAQLKSQIQQYLVESGNYELISNELKARLLQEGWVDKVKDLTKSEMNINESTNFTQILSTVEPKALEMVSDSTRETVLKQIREFLEEIVDTQ
In the case of B1, in assay [1], the binding entry was “binds”.

B2: recombinant Sgf73p (MBP-Sgf73p) (protein, UniProt P53165 1-657)
chain: B1 chain 1
As for B2, the binding result in assay [2] is reported as “no binding”.

B3: Sgf73p-13xMYC (protein, UniProt P53165 1-657)
chain: B1 chain 1
Consider B3, for which the binding result in the assay with Hsf1p (S. cerevisiae) was “binds”; in assay [3], “no binding”; in assay [4], “binds”; in the assay with Sub2p (S. cerevisiae), “binds”; in assay [5], “binds”.

B4: Sus1p (FLAG-tagged, subunit of the purified Sgf73-DUBm) (protein, UniProt Q6WNK7 1-96)
chain: B1 chain 4
Turning to B4, the binding entry in assay [1] is listed as “no binding”.

B5: Ada1p (protein, UniProt Q12060 1-488)
chain: MSAIQSPAPKPLQPTYPAASPASTNAYMKPGLIGSPAVSNHTEPNNGNNETAEPQGPNQRIDLGAMIEELTSLLGKESWTKYAQIISLFILGKLSRKELSNELELVFSPSAASLEKSNTNHHHSLVRLHNQLLLGIFANSLRENPLGRNGNESSWGFGNGSNNPNNKLKRINKHNSQIEVYKKIVMSLPLNDRNRLKMITKEAGKRGFIFCSVFQARLNNIPKIPIVTNPESLKRVKSNNLKTPLEWSQDIMNGFNVPLASESHSLPDTDSFYLRMVGIAREHGLVGTVDARCVELISLALDQYLKNIIEFTIDTVRYRRKKYSDYYDLNESGLYKSVSEMAADKRDAKIKQLDDDKNEDECADEAKSINNGNNSSKDDIGDISMSSITKAGEAVNEELHENRTISLTNEDIYDSLSIFPNLVEPSGSYYALTNLGLVNDDELVDMKSNIDDLPDFLNEKPTFTPLDERNVGTRHELNWLIKGILTED
As for B5, in assay [5], the binding entry is “binds”.

B6: Spt20p (protein, UniProt P50875 1-604)
chain: MSANSPTGNDPHVFGIPVNATPSNMGSPGSPVNVPPPMNPAVANVNHPVMRTNSNSNANEGTRTLTREQIQQLQQRQRLLLQQRLLEQQRKQQALQNYEAQFYQMLMTLNKRPKRLYNFVEDADSILKKYEQYLHSFEFHIYENNYKICAPANSRLQQQQKQPELTSDGLILTKNNETLKEFLEYVARGRIPDAIMEVLRDCNIQFYEGNLILQVYDHTNTVDVTPKENKPNLNSSSSPSNNNSTQDNSKIQQPSEPNSGVANTGANTANKKASFKRPRVYRTLLKPNDLTTYYDMMSYADNARFSDSIYQQFESEILTLTKRNLSLSVPLNPYEHRDMLEETAFSEPHWDSEKKSFIHEHRAESTREGTKGVVGHIEERDEFPQHSSNYEQLMLIMNERTTTITNSTFAVSLTKNAMEIASSSSNGVRGASSSTSNSASNTRNNSLANGNQVALAAAAAAAAVGSTMGNDNNQFSRLKFIEQWRINKEKRKQQALSANINPTPFNARISMTAPLTPQQQLLQRQQQALEQQQNGGAMKNANKRSGNNATSNNNNNNNNLDKPKVKRPRKNAKKSESGTPAPKKKRMTKKKQSASSTPSSTTMS
As to B6, the binding entry in assay [5] is given as “binds”.
